The list shows a part of the results. No stated cut-off is given here; in the data, active = 3.2 or more and inactive = the rest. Only a few entries rise above the background.

Targets include SHP2 C-SH2 domain E139D; SHP2 N-SH2 domain L43F; SHP2 N-SH2 domain T42A; SHP2 N-SH2 domain T52S.
Assay in all cases: enrichment score (SH2-bound / input frequency) (ratio); bacterial display of known human phosphotyrosine sites (pTyr-Var adds point mutants) read by sequencing; higher = stronger binding; tyrosines were phosphorylated by kinases first
Common to all, as to details: peptide library: pTyr-Var

Experiment [1] has as its target SHP2 C-SH2 domain wild-type.
Experiment [2] deals with SHP2 N-SH2 domain wild-type.
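Further: displayed peptides selected on beads carrying the immobilized SH2 domain, with library peptides lacking any tyrosine serving as negative controls.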

In the case of PDSVDYPKKGF [CTSK_Y121_R122P_YF], the enrichment score with SHP2 C-SH2 domain E139D was inactive: 0.318; in experiment [1], inactive: 0.442; with SHP2 N-SH2 domain L43F it was inactive: 0.591; with SHP2 N-SH2 domain T42A it was inactive: 0.411; in the experiment with SHP2 N-SH2 domain T52S, inactive: 0.536; in experiment [2], inactive: 0.68.
As for ASENVYVNTAH [CTSC_Y150_I153T], the enrichment score with SHP2 C-SH2 domain E139D was inactive: 1.77; in experiment [1], inactive: 1.6; in the experiment with SHP2 N-SH2 domain L43F, inactive: 1.47; with SHP2 N-SH2 domain T42A, inactive: 2.01; with SHP2 N-SH2 domain T52S it was inactive: 1.98; in experiment [2], inactive: 1.74.
As to PDSVDYPKKGY [CTSK_Y121_R122P], the enrichment score with SHP2 C-SH2 domain E139D is inactive: 0.466; in experiment [1] it was inactive: 0.43; in the experiment with SHP2 N-SH2 domain L43F, inactive: 0.595; with SHP2 N-SH2 domain T42A it was inactive: 0.489; in the experiment with SHP2 N-SH2 domain T52S, inactive: 0.411; in experiment [2], inactive: 0.464.
Take YSKTQYNQVPR [CXADR_Y318_S323R]: the enrichment score is inactive: 0.707 in the experiment with SHP2 C-SH2 domain E139D; inactive: 0.655 in experiment [1]; inactive: 0.602 in the experiment with SHP2 N-SH2 domain L43F; inactive: 0.497 with SHP2 N-SH2 domain T42A; inactive: 0.642 with SHP2 N-SH2 domain T52S; inactive: 0.573 in experiment [2].
For the molecule FFSSEYHFVGG [CTSC_Y345_YF], the enrichment score with SHP2 C-SH2 domain E139D was inactive: 1.79; in experiment [1], inactive: 1.56; in the experiment with SHP2 N-SH2 domain L43F, inactive: 2.07; with SHP2 N-SH2 domain T42A it was inactive: 2.07; with SHP2 N-SH2 domain T52S it was inactive: 1.85; in experiment [2], inactive: 1.38.
On to FTRNYYVQAVL [CYBA_Y88_R90Q], for which the enrichment score is inactive: 1.22 with SHP2 C-SH2 domain E139D; inactive: 1.26 in experiment [1]; inactive: 1.14 in the experiment with SHP2 N-SH2 domain L43F; inactive: 1.1 with SHP2 N-SH2 domain T42A; inactive: 1.16 with SHP2 N-SH2 domain T52S; inactive: 1.17 in experiment [2].
Take CYSSEYHYVGG [CTSC_Y345_Y340C]: the enrichment score is inactive: 1.17 with SHP2 C-SH2 domain E139D; inactive: 1.29 in experiment [1]; inactive: 1.07 with SHP2 N-SH2 domain L43F; inactive: 0.869 with SHP2 N-SH2 domain T42A; inactive: 0.851 with SHP2 N-SH2 domain T52S; inactive: 1.64 in experiment [2].
With CFSSEYHFVGG [CTSC_Y345_Y340C_YF], the enrichment score with SHP2 C-SH2 domain E139D is inactive: 1.07; in experiment [1], inactive: 1.06; with SHP2 N-SH2 domain L43F it was inactive: 0.962; with SHP2 N-SH2 domain T42A, inactive: 0.831; with SHP2 N-SH2 domain T52S it was inactive: 0.843; in experiment [2] it was inactive: 1.19.
GKMPQYLESMQ [CYB5R3_Y130_S128P]: the enrichment score in the experiment with SHP2 C-SH2 domain E139D was inactive: 0.882; in experiment [1], inactive: 0.686; with SHP2 N-SH2 domain L43F it was inactive: 0.878; with SHP2 N-SH2 domain T42A it was inactive: 0.795; with SHP2 N-SH2 domain T52S, inactive: 0.959; in experiment [2] it was inactive: 0.965.
Consider LNNIIYRLERA [CUX2_Y1470_V1472L], for which the enrichment score with SHP2 C-SH2 domain E139D was inactive: 1.48; in experiment [1], inactive: 1.31; in the experiment with SHP2 N-SH2 domain L43F, inactive: 2.14; in the experiment with SHP2 N-SH2 domain T42A, inactive: 1.21; in the experiment with SHP2 N-SH2 domain T52S, inactive: 1.78; in experiment [2], inactive: 1.11.
Turning to FTRNYYVWAVL [CYBA_Y88_R90W], the enrichment score with SHP2 C-SH2 domain E139D is inactive: 2.26; in experiment [1], inactive: 2.25; with SHP2 N-SH2 domain L43F, inactive: 2.17; with SHP2 N-SH2 domain T42A, inactive: 1.92; with SHP2 N-SH2 domain T52S, inactive: 1.57; in experiment [2] it was inactive: 1.68.
With FTRNFYVQAVL [CYBA_Y88_R90Q_YF], the enrichment score with SHP2 C-SH2 domain E139D is inactive: 1.28; in experiment [1], inactive: 1.56; with SHP2 N-SH2 domain L43F, inactive: 1.83; in the experiment with SHP2 N-SH2 domain T42A, inactive: 1.1; in the experiment with SHP2 N-SH2 domain T52S, inactive: 1.21; in experiment [2], inactive: 1.59.
Turning to FFSSEYHCVGG [CTSC_Y345_Y347C_YF], the enrichment score with SHP2 C-SH2 domain E139D was inactive: 1.12; in experiment [1], inactive: 1.45; with SHP2 N-SH2 domain L43F, inactive: 1.08; in the experiment with SHP2 N-SH2 domain T42A, inactive: 0.854; with SHP2 N-SH2 domain T52S, inactive: 0.951; in experiment [2] it was inactive: 1.03.
Take NIISFYLSRDP [CTSD_Y232_F229I]: the enrichment score with SHP2 C-SH2 domain E139D is active: 3.21; in experiment [1], active: 3.42; with SHP2 N-SH2 domain L43F, inactive: 2.79; with SHP2 N-SH2 domain T42A, inactive: 2.95; with SHP2 N-SH2 domain T52S, active: 3.3; in experiment [2], active: 3.3.
Turning to YVGGFYGGCNE [CTSC_Y352], the enrichment score with SHP2 C-SH2 domain E139D is inactive: 0.973; in experiment [1] it was inactive: 0.702; in the experiment with SHP2 N-SH2 domain L43F it was inactive: 0.773; with SHP2 N-SH2 domain T42A, inactive: 0.843; with SHP2 N-SH2 domain T52S, inactive: 0.791; in experiment [2], inactive: 0.946.
In the case of FTRNYYVRAVL [CYBA_Y88], the enrichment score with SHP2 C-SH2 domain E139D was inactive: 1.12; in experiment [1], inactive: 1.42; with SHP2 N-SH2 domain L43F, inactive: 1.17; with SHP2 N-SH2 domain T42A, inactive: 1.12; with SHP2 N-SH2 domain T52S it was inactive: 0.912; in experiment [2], inactive: 1.23.
As for PFTRNYYVRAV [CYBA_Y87], the enrichment score with SHP2 C-SH2 domain E139D was inactive: 0.533; in experiment [1] it was inactive: 0.799; with SHP2 N-SH2 domain L43F it was inactive: 0.532; with SHP2 N-SH2 domain T42A, inactive: 0.568; with SHP2 N-SH2 domain T52S it was inactive: 0.483; in experiment [2], inactive: 0.574.
Take GKMSQYLESMQ [CYB5R3_Y130]: the enrichment score in the experiment with SHP2 C-SH2 domain E139D was inactive: 0.84; in experiment [1] it was inactive: 0.565; in the experiment with SHP2 N-SH2 domain L43F, inactive: 0.79; with SHP2 N-SH2 domain T42A, inactive: 0.79; with SHP2 N-SH2 domain T52S it was inactive: 0.769; in experiment [2], inactive: 0.671.
As to PFTRNYYVWAV [CYBA_Y87_R90W], the enrichment score with SHP2 C-SH2 domain E139D is inactive: 2.03; in experiment [1], inactive: 2.03; with SHP2 N-SH2 domain L43F, inactive: 1.85; with SHP2 N-SH2 domain T42A it was inactive: 1.84; with SHP2 N-SH2 domain T52S it was inactive: 1.93; in experiment [2], inactive: 1.49.

Values taken from the supplement of paper PMC10369915.
